# Test results as given in patent US20190142913A1 (CREATIVE BIOTHERAPEUTICS, published 2019).
# Target: GRP78 (glucose-regulated protein 78), StressMarq (UniProt P11021 19-654, limits assumed)
# Assay: cell-based or functional assay
# Sequence of UniProt P11021 (P11021 19-654 limits assumed): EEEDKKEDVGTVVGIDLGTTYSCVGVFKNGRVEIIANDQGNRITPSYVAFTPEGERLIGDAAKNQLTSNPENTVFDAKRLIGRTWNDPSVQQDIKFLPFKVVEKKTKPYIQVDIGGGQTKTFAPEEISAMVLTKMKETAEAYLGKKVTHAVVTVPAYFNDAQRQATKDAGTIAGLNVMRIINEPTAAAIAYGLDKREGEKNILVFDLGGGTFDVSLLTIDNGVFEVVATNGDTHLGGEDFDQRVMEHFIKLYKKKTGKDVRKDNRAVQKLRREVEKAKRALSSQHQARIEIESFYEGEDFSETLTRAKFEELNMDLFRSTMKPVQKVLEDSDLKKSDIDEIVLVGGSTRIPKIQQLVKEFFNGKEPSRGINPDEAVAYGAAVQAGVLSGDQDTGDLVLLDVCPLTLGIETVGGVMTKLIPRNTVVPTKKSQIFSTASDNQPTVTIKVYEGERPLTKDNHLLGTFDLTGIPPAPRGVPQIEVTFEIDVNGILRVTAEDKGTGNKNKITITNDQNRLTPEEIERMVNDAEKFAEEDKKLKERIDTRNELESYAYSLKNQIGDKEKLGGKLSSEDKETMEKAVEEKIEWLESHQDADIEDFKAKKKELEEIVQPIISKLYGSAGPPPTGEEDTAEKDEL
binder,measurement,value
K5(3-89 Active Zone)frag SEQ ID NO:1 (other) SEEDCMFGNGKGYRGKRATTVTGTPCQDWAAQEPHRHSIFTPETNPRAGLEKNYCRNPDGDVGGPWCYTTNPRKLYDYCDVPQCAAPKS,"Proliferation Inhibition (5 day) IC50, mouse breast cancer 4T1",12.5 µM
same,"Proliferation Inhibition (5 day) IC50, mouse breast cancer DA3",0.01 µM
